Results reported in PMC12350170, “Structural basis for the synergistic assembly of the snRNA export complex” (Nature Structural & Molecular Biology, 2025).

Assays:
Test in all cases: SEC; Superdex 200; preassembled CBC–ARS2 147–871–capped RNA complex incubated with CRM1, RanGTP and a PHAX construct; fractions on SDS-PAGE (7% gel to resolve CRM1 and ARS2)
Conditions in all cases: both partners purified
Human CRM1 = molecular target: T1, Human CRM1 (human, UniProt O14980)
T1 construct: CRM1 (XPO1), human; also called XPO1; exportin CRM1; source: E. coli Tg1, pQE60, purified (Ni2+-chelating Sepharose, heparin, Superdex 200)

[1] = molecular target: Human Ran Q69L bound to GTP (human, UniProt P62826, Q69L)
[2] = molecular target: T2, Human nuclear cap-binding complex (CBC): CBP80ΔNLS with CBP20 (human, UniProt Q09161 20-790; P52298 1-156)
T2 construct: CBP80 (NCBP1), human, CBP80ΔNLS lacking the N-terminal 19 residues; CBP20 (NCBP2), human; also called CBP80–CBP20; source: CBP80ΔNLS in High Five insect cells, CBP20 in E. coli BL21Star (DE3); pellets lysed together, purified (Ni2+-chelating Sepharose, TEV, heparin, Superdex 200)
T2 sequence 1: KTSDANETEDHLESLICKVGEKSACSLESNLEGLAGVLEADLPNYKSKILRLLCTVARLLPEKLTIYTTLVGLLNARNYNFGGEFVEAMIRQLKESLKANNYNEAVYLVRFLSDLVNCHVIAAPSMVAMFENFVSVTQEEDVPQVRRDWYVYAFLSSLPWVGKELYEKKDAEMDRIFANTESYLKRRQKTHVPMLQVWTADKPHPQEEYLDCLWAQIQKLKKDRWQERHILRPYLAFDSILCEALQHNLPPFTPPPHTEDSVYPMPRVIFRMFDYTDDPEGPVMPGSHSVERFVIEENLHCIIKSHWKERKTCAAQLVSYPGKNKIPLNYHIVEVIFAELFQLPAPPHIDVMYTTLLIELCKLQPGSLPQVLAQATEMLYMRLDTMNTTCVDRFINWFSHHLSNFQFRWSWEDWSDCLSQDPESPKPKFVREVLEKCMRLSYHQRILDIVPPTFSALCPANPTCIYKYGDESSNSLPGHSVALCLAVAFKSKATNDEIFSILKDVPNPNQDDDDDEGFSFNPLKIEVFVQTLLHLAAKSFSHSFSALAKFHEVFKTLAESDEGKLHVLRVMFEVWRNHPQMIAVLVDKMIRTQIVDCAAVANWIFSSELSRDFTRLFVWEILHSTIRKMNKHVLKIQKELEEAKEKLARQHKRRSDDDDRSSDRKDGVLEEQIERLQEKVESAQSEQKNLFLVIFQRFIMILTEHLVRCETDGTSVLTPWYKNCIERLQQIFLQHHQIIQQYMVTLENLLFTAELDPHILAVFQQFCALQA
T2 sequence 2: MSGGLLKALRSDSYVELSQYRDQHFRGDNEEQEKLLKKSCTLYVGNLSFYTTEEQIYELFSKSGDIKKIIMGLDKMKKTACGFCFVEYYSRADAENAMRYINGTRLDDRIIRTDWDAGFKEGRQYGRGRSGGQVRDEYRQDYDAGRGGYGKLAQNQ

Measured: binding result

B1: Human full-length PHAX E9R, phosphorylated by CK2 (natural protein)
chain: not shown
modifications: phosphorylated (CK2); positions not given
notes: PHAX, human, full length, E9R in the ARM motif (9-EDGQL-13); Expression of the mutant is not described separately; also called phosphorylated FL PHAX E9R; FL PHAX E9R; source: E. coli, purified; phosphorylated with CK2 (as FL PHAX)
binds: Human CRM1 | [1] | [2]
